Sequences with one replicate were seen in a single cluster, so their values are uncertain.
Test system: ATP
Assay: switch fluorescence ratio, 500 uM ATP over buffer (Cy3 cluster intensity, sum of 5 cycles each) (fold (ratio)); higher = stronger signal-on switching upon ATP binding; sequences stand for … in TCGTCGGCAGCGTCAGATGTGTATAAGAGACAGTTTTTTTTTTTTTTTTTTTTTTTTT…TC
Conditions: aptamer strand: ATP DNA aptamer (quencher-CACCTGGGGGAGTATTGCGGAGGAAGG + anchor), 100 nM annealed; ATP concentration: 500 uM; one replicate
Method in brief: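 Between each of five buffer/ATP cycles, the flow-cell was stripped with NaOH and re-annealed. Each cycle imaged Cy3-labelled switching-strand clusters, annealed to 100 nM quencher-labelled ATP aptamer on a modified Illumina MiSeq flow-cell, first in selection buffer and then after 15 min with 500 uM ATP at 22 °C. The fluorescence ratio is summed target-cycle over summed buffer-cycle Cy3 intensity per cluster, averaged per switch-domain sequence, with clusters outside 100-1000 RFU excluded.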
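Further: ATP exposure 15 min at 22 °C before imaging.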

Q: With CATGAATGAC as the sequence, how does the switch fluorescence ratio read?
A: 0.989

Q: Which switch fluorescence ratio does the source give for CATGACAGCT here?
A: 1.01

Q: CATGACATGT was tested. Which switch fluorescence ratio did it give?
A: 0.99

Q: Which switch fluorescence ratio does the source give for CATGACCCGG here?
A: 1.02

Q: How did the switch fluorescence ratio turn out when CATGACTGGT was run?
A: 0.987

Q: How did the switch fluorescence ratio turn out when CATGAGGCAA was run?
A: 2.08

Q: How did the switch fluorescence ratio turn out when CATGAGGTGC was run?
A: 1.09

Q: How did the switch fluorescence ratio turn out when CATGATTTAC was run?
A: 1.02

Q: With CATGCATGCG as the sequence, how does the switch fluorescence ratio read?
A: 1.06

Q: For CATGCGCAAG, which switch fluorescence ratio is on record?
A: 4.38

Q: With CATGCTACCA as the sequence, how does the switch fluorescence ratio read?
A: 1.07

Q: How did the switch fluorescence ratio turn out when CATGCTAGCG was run?
A: 0.989

Q: For CATGCTGAGG, which switch fluorescence ratio is on record?
A: 0.979

Q: For CATGCTTCGC, which switch fluorescence ratio is on record?
A: 1

Q: How did the switch fluorescence ratio turn out when CATGGAAGAA was run?
A: 1.01

Q: How did the switch fluorescence ratio turn out when CATGGAGGGC was run?
A: 0.97

Q: How did the switch fluorescence ratio turn out when CATGGCTTAC was run?
A: 1.52

Q: How did the switch fluorescence ratio turn out when CATGGTGACA was run?
A: 0.98

Q: CATGGTGTGA was tested. Which switch fluorescence ratio did it give?
A: 1.02

Q: Which switch fluorescence ratio does the source give for CATGGTTGAC here?
A: 1

Q: Which switch fluorescence ratio does the source give for CATGTAGAAG here?
A: 1.02

Q: How did the switch fluorescence ratio turn out when CATGTAGCTA was run?
A: 1.04

Q: Which switch fluorescence ratio does the source give for CATGTATTTA here?
A: 0.981

Q: How did the switch fluorescence ratio turn out when CATGTCGCAC was run?
A: 1.18

Q: CATGTCGCGT was tested. Which switch fluorescence ratio did it give?
A: 1.04

Q: Which switch fluorescence ratio does the source give for CATGTCGTAG here?
A: 0.978

Q: How did the switch fluorescence ratio turn out when CATGTCTAGC was run?
A: 0.998

Q: For CATGTGGCAG, which switch fluorescence ratio is on record?
A: 1.01

Q: With CATGTGGGAT as the sequence, how does the switch fluorescence ratio read?
A: 1.02

Q: Which switch fluorescence ratio does the source give for CATGTGTCAT here?
A: 0.996

Q: CATGTTAAGT was tested. Which switch fluorescence ratio did it give?
A: 0.969

Q: How did the switch fluorescence ratio turn out when CATGTTGACA was run?
A: 0.991

Q: CATGTTGTTC was tested. Which switch fluorescence ratio did it give?
A: 0.981

Q: How did the switch fluorescence ratio turn out when CATGTTTGAC was run?
A: 1.02

Q: For CATTAAACA, which switch fluorescence ratio is on record?
A: 0.98

Q: With CATTACATAC as the sequence, how does the switch fluorescence ratio read?
A: 1.35

Q: For CATTACGAGC, which switch fluorescence ratio is on record?
A: 1.16

Q: Which switch fluorescence ratio does the source give for CATTAGTCTG here?
A: 1.01

Q: Which switch fluorescence ratio does the source give for CATTAGTGGT here?
A: 0.968

Q: Which switch fluorescence ratio does the source give for CATTATCGAG here?
A: 1

Q: Which switch fluorescence ratio does the source give for CATTATGAA here?
A: 1

Q: For CATTATGTA, which switch fluorescence ratio is on record?
A: 0.994

Q: With CATTCATGTC as the sequence, how does the switch fluorescence ratio read?
A: 0.958

Q: Which switch fluorescence ratio does the source give for CATTCATGTG here?
A: 0.971

Q: With CATTCGAGGC as the sequence, how does the switch fluorescence ratio read?
A: 1.06

Q: Which switch fluorescence ratio does the source give for CATTCGTCAA here?
A: 4.75

Q: Which switch fluorescence ratio does the source give for CATTCGTTAC here?
A: 3.51

Q: Which switch fluorescence ratio does the source give for CATTCTACTC here?
A: 1.1

Q: For CATTCTCTAA, which switch fluorescence ratio is on record?
A: 0.968

Q: How did the switch fluorescence ratio turn out when CATTGACAAG was run?
A: 1.02

Q: With CATTGACGGC as the sequence, how does the switch fluorescence ratio read?
A: 1.05

Q: How did the switch fluorescence ratio turn out when CATTGACTAC was run?
A: 1.09

Q: With CATTGACTGT as the sequence, how does the switch fluorescence ratio read?
A: 1.16

Q: CATTGAGGCT was tested. Which switch fluorescence ratio did it give?
A: 0.989

Q: For CATTGCGCGG, which switch fluorescence ratio is on record?
A: 0.97

Q: How did the switch fluorescence ratio turn out when CATTGGCCAT was run?
A: 0.977

Q: How did the switch fluorescence ratio turn out when CATTGGGGAA was run?
A: 0.99

Q: With CATTGGGGGC as the sequence, how does the switch fluorescence ratio read?
A: 1.01

Q: Which switch fluorescence ratio does the source give for CATTGGGTCG here?
A: 1.01

Q: Which switch fluorescence ratio does the source give for CATTGTAACT here?
A: 1.04

Q: How did the switch fluorescence ratio turn out when CATTGTACGG was run?
A: 0.944

Q: How did the switch fluorescence ratio turn out when CATTGTCCTT was run?
A: 1.01

Q: How did the switch fluorescence ratio turn out when CATTGTTATG was run?
A: 1.02

Q: How did the switch fluorescence ratio turn out when CATTTAACAA was run?
A: 1.02

Q: For CATTTAATCA, which switch fluorescence ratio is on record?
A: 0.998

Q: CATTTATATC was tested. Which switch fluorescence ratio did it give?
A: 0.996

Q: With CATTTCAGTT as the sequence, how does the switch fluorescence ratio read?
A: 0.993

Q: Which switch fluorescence ratio does the source give for CATTTCGCTT here?
A: 1.03

Q: CATTTGCATT was tested. Which switch fluorescence ratio did it give?
A: 1.16

Q: Which switch fluorescence ratio does the source give for CATTTGCTTA here?
A: 1.04

Q: CATTTGGTA was tested. Which switch fluorescence ratio did it give?
A: 0.986

Q: For CATTTTTAGT, which switch fluorescence ratio is on record?
A: 1.02

Q: CATTTTTCCA was tested. Which switch fluorescence ratio did it give?
A: 0.981

Q: CCAAACTGGT was tested. Which switch fluorescence ratio did it give?
A: 1.03

Q: Which switch fluorescence ratio does the source give for CCAAATGAAG here?
A: 0.986

Q: Which switch fluorescence ratio does the source give for CCAAATGCGT here?
A: 1

Q: CCAACTGCTC was tested. Which switch fluorescence ratio did it give?
A: 1.37

Q: With CCAAGAAGGA as the sequence, how does the switch fluorescence ratio read?
A: 1.01

Q: CCAAGAAGGG was tested. Which switch fluorescence ratio did it give?
A: 1.01

Q: For CCAAGCGTCA, which switch fluorescence ratio is on record?
A: 1.08

Q: For CCAAGCGTTA, which switch fluorescence ratio is on record?
A: 1.35

Q: How did the switch fluorescence ratio turn out when CCAAGGTTGA was run?
A: 1.03

Q: For CCAAGTGACC, which switch fluorescence ratio is on record?
A: 1.11

Q: For CCAAGTTGGA, which switch fluorescence ratio is on record?
A: 1.03

Q: With CCAATATTAC as the sequence, how does the switch fluorescence ratio read?
A: 1.94

Q: For CCAATGCGGA, which switch fluorescence ratio is on record?
A: 1.11

Q: Which switch fluorescence ratio does the source give for CCAATGTTGT here?
A: 1.03

Q: How did the switch fluorescence ratio turn out when CCAATTACGT was run?
A: 1.1

Q: CCAATTACTT was tested. Which switch fluorescence ratio did it give?
A: 0.998

Q: CCAATTCCGG was tested. Which switch fluorescence ratio did it give?
A: 1.02

Q: For CCAATTTGGC, which switch fluorescence ratio is on record?
A: 1

Q: Which switch fluorescence ratio does the source give for CCACAAAGAG here?
A: 1.03

Q: Which switch fluorescence ratio does the source give for CCACAGTATT here?
A: 1.17

Q: CCACATGAGT was tested. Which switch fluorescence ratio did it give?
A: 0.982

Q: Which switch fluorescence ratio does the source give for CCACATTCGT here?
A: 1.02

Q: CCACCACTTT was tested. Which switch fluorescence ratio did it give?
A: 1.03

Q: How did the switch fluorescence ratio turn out when CCACCAGAGA was run?
A: 1.31

Q: How did the switch fluorescence ratio turn out when CCACCGCTT was run?
A: 4.52

Q: For CCACCTGTAT, which switch fluorescence ratio is on record?
A: 1.07

Q: How did the switch fluorescence ratio turn out when CCACCTTCTG was run?
A: 1.09

Q: For CCACGAGCTA, which switch fluorescence ratio is on record?
A: 1.55

Q: With CCACGCGCTG as the sequence, how does the switch fluorescence ratio read?
A: 1.09

Q: CCACGGATGG was tested. Which switch fluorescence ratio did it give?
A: 0.973

Q: For CCACGGGGCC, which switch fluorescence ratio is on record?
A: 0.985

Q: For CCACGGGGGT, which switch fluorescence ratio is on record?
A: 1.08

Q: With CCACGGTAGT as the sequence, how does the switch fluorescence ratio read?
A: 1.02

Q: How did the switch fluorescence ratio turn out when CCACGGTCTG was run?
A: 1.09

Q: How did the switch fluorescence ratio turn out when CCACGTTCTT was run?
A: 1.03

Q: CCACTAGCCG was tested. Which switch fluorescence ratio did it give?
A: 1.06

Q: For CCACTGCCGG, which switch fluorescence ratio is on record?
A: 1.08

Q: How did the switch fluorescence ratio turn out when CCACTTACAT was run?
A: 1.27

Q: Which switch fluorescence ratio does the source give for CCACTTATCT here?
A: 1.04

Q: For CCACTTCACG, which switch fluorescence ratio is on record?
A: 1.4

Q: Which switch fluorescence ratio does the source give for CCACTTGGCT here?
A: 0.99

Q: With CCACTTTCCA as the sequence, how does the switch fluorescence ratio read?
A: 0.999

Q: For CCACTTTGAA, which switch fluorescence ratio is on record?
A: 1

Q: Which switch fluorescence ratio does the source give for CCAGAACAGT here?
A: 1.03

Q: Which switch fluorescence ratio does the source give for CCAGACCGGA here?
A: 1.07

Q: Which switch fluorescence ratio does the source give for CCAGACGTCA here?
A: 1.03

Q: How did the switch fluorescence ratio turn out when CCAGACTTGC was run?
A: 0.951

Q: Which switch fluorescence ratio does the source give for CCAGAGCGAG here?
A: 2.45

Q: CCAGAGGCCC was tested. Which switch fluorescence ratio did it give?
A: 1.02

Q: For CCAGCACCGG, which switch fluorescence ratio is on record?
A: 1.04

Q: With CCAGCAGCCC as the sequence, how does the switch fluorescence ratio read?
A: 1.96

Q: How did the switch fluorescence ratio turn out when CCAGCCCGCA was run?
A: 3.23

Q: For CCAGCCCGGA, which switch fluorescence ratio is on record?
A: 1

Q: CCAGCCCTTA was tested. Which switch fluorescence ratio did it give?
A: 0.98

Q: Which switch fluorescence ratio does the source give for CCAGCGAAAA here?
A: 0.976

Q: With CCAGCGAAGG as the sequence, how does the switch fluorescence ratio read?
A: 1.07

Q: Which switch fluorescence ratio does the source give for CCAGCGCGCC here?
A: 1.04

Q: CCAGCTTAGG was tested. Which switch fluorescence ratio did it give?
A: 1.03

Q: For CCAGGACTAA, which switch fluorescence ratio is on record?
A: 1.04

Q: CCAGGCAGT was tested. Which switch fluorescence ratio did it give?
A: 1.13

Q: For CCAGGCGCT, which switch fluorescence ratio is on record?
A: 1.13

Q: How did the switch fluorescence ratio turn out when CCAGGGCGGT was run?
A: 1.09

Q: How did the switch fluorescence ratio turn out when CCAGGGTTTG was run?
A: 1.02

Q: Which switch fluorescence ratio does the source give for CCAGTCAGAT here?
A: 0.968

Q: For CCAGTCCTTA, which switch fluorescence ratio is on record?
A: 0.979

Q: Which switch fluorescence ratio does the source give for CCAGTCGCTG here?
A: 1

Q: For CCAGTCTGTT, which switch fluorescence ratio is on record?
A: 1.02

Q: CCAGTGCGTA was tested. Which switch fluorescence ratio did it give?
A: 1.04

Q: How did the switch fluorescence ratio turn out when CCAGTGGTGG was run?
A: 0.959

Q: Which switch fluorescence ratio does the source give for CCATAAGACA here?
A: 1.01

Q: CCATACACTC was tested. Which switch fluorescence ratio did it give?
A: 1.05

Q: CCATAGTAAT was tested. Which switch fluorescence ratio did it give?
A: 4.76

Q: Which switch fluorescence ratio does the source give for CCATATTATG here?
A: 1.01

Q: CCATCCTTTA was tested. Which switch fluorescence ratio did it give?
A: 1.02

Q: How did the switch fluorescence ratio turn out when CCATGAAGGA was run?
A: 1.06

Q: For CCATGAGTTA, which switch fluorescence ratio is on record?
A: 1.01

Q: For CCATGCTGAC, which switch fluorescence ratio is on record?
A: 1.77

Q: With CCATGCTTAT as the sequence, how does the switch fluorescence ratio read?
A: 1.01

Q: With CCATGGTTTG as the sequence, how does the switch fluorescence ratio read?
A: 0.988

Q: Which switch fluorescence ratio does the source give for CCATGTAGTG here?
A: 1.03
